{"source": "PubChem BioAssay (NCATS)", "key": {"[1]": {"test": "qHTS drug screen for cell cycle checkpoint inhibitors in PARPi-resistant BRCA-mutant ovarian cancer cell lines. (AID 1963452)", "conditions": "PEO1/OlaR viability, CellTiter-Glo luminescence, 96 h", "in_short": "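PEO1, PEO4 and PEO1/OlaR ovarian cancer cells, 600 per well, exposed 96 h at 37C to a dilution series. Viability read by CellTiter-Glo luminescence, normalized to DMSO and empty wells; activity summarized as Z-AUC.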"}, "[2]": {"test": "qHTS for identification of novel therapeutic agents for treatment of microphthalmiaassociated transcription factor (MiT) renal cell carcinoma (RCC) (AID 1963991)", "conditions": "CellTiter-Glo, 48 h; for z-score: stronger effect = lower value", "in_short": "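Curves over 11 concentrations were fitted to CellTiter-Glo luminescence, scaled between empty wells (0%) and DMSO (100%) viability. Cells were UOK109, UOK124 and UOK145 TFE3-fusion RCC lines at 500/well, exposed 48 hours at 37 C.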"}, "[3]": {"conditions": "measured here: PEO1 parental viability"}, "[4]": {"conditions": "TFE3-RCC UOK109 viability, measured here: UOK109 Z-AUC"}, "[5]": {"conditions": "TFE3-RCC viability, measured here: UOK124 Z-AUC"}, "[6]": {"conditions": "TFE3-RCC viability, measured here: UOK124 cell viability"}, "[7]": {"conditions": "TFE3-RCC viability, measured here: UOK145 Z-AUC"}, "[8]": {"conditions": "TFE3-RCC viability, measured here: UOK145 cell viability"}}, "note": "This is one part of the list. Further columns of the screen follow, without active or inactive calls. For some of these results: Compounds called inactive in the main read-out are mostly missing here. Potencies come from curve fits of mixed quality, noted in brackets. Tags tell the direction and shape of the fitted curve."}
{"smiles": "CNC(=O)c1c(F)cccc1Nc1nc(Nc2cc3c(cc2OC)CCN3C(=O)CN(C)C)nc2[nH]ccc12", "values": [{"measurement": "AC50", "setting": "[1]; [3]", "value": "17.4 µM [falling, single point]"}, {"measurement": "AC50", "setting": "[1]; measured here: PEO4 viability", "value": "8.71 µM [falling, partial curve]"}, {"measurement": "z-score", "setting": "[2]; [4]", "value": 1}, {"measurement": "z-score", "setting": "[2]; [5]", "value": -1.2}, {"measurement": "AC50", "setting": "[2]; [6]", "value": "20.9 µM [falling, partial curve]"}, {"measurement": "z-score", "setting": "[2]; [7]", "value": 0.203}, {"measurement": "AC50", "setting": "[2]; [8]", "value": "20.9 µM [falling, partial curve]"}]}
{"smiles": "CNc1nccc(-c2cccnc2Oc2cc(C(=O)Nc3cccc(C(F)(F)F)c3)ccc2C)n1", "values": [{"measurement": "AC50", "setting": "[1]; [3]", "value": "5.49 µM [falling, single point]"}, {"measurement": "AC50", "setting": "[1]; measured here: PEO4 viability", "value": "4.9 µM [falling, single point]"}, {"measurement": "z-score", "setting": "[2]; [4]", "value": 0.499}, {"measurement": "z-score", "setting": "[2]; [5]", "value": 0.607}, {"measurement": "AC50", "setting": "[2]; [6]", "value": "20.9 µM [falling, partial curve, poor fit]"}, {"measurement": "z-score", "setting": "[2]; [7]", "value": 0.00353}, {"measurement": "AC50", "setting": "[2]; [8]", "value": "18.7 µM [falling, partial curve]"}]}
{"smiles": "COC(=O)Nc1ccc(-c2nc(N3CCOCC3)c3cnn(C4CCN(Cc5cccnc5)CC4)c3n2)cc1", "values": [{"measurement": "AC50", "setting": "[1]; [3]", "value": "6.16 µM [falling, partial curve]"}, {"measurement": "AC50", "setting": "[1]; measured here: PEO4 viability", "value": "4.9 µM [falling, partial curve]"}, {"measurement": "z-score", "setting": "[2]; [4]", "value": -0.768}, {"measurement": "z-score", "setting": "[2]; [5]", "value": -0.382}, {"measurement": "AC50", "setting": "[2]; [6]", "value": "5.9 µM [falling, partial curve]"}, {"measurement": "z-score", "setting": "[2]; [7]", "value": -1.49}, {"measurement": "AC50", "setting": "[2]; [8]", "value": "1.05 µM [falling, partial curve]"}]}
{"smiles": "FC(F)(F)c1ccc(Nc2nc3ccc(Oc4ccnc(-c5ncc(C(F)(F)F)[nH]5)c4)cc3[nH]2)cc1", "values": [{"measurement": "AC50", "setting": "[1]; [3]", "value": "19.5 µM [falling, single point]"}, {"measurement": "AC50", "setting": "[1]; measured here: PEO4 viability", "value": "6.92 µM [falling, partial curve]"}, {"measurement": "z-score", "setting": "[2]; [4]", "value": 0.454}, {"measurement": "z-score", "setting": "[2]; [5]", "value": -0.0691}, {"measurement": "AC50", "setting": "[2]; [6]", "value": "11.8 µM [falling, partial curve]"}, {"measurement": "z-score", "setting": "[2]; [7]", "value": -0.276}, {"measurement": "AC50", "setting": "[2]; [8]", "value": "14.8 µM [falling, partial curve]"}]}
